The campaign covered roughly 350,000 compounds. About 260 (0.074%) were called active. Inconclusive results, whose numbers are uncertain, are shown with a selection of clear calls. The call rests on the fitted dose curve; in most records, active means well fitted inhibition curve with a large enough effect; inconclusive means small, poorly fitted or top-dose-only effect; inactive means no such curve, though single readings can be large or run the other way. A potency beside an inconclusive call is a rough fit, not a confirmed value.
Molecular target: Ferritin light chain (Equus caballus) (UniProt P02791)
Sequence of UniProt P02791 (P02791 whole entry, looked up): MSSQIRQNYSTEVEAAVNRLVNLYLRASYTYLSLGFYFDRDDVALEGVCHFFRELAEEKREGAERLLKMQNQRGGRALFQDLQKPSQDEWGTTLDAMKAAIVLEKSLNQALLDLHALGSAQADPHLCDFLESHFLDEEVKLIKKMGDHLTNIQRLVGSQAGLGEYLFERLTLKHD
Test: qHTS Assay for Identification of Novel General Anesthetics; further: nearly all actives have a fitted effect of over 20% in size
Details: apoferritin/1-aminoanthracene competitive binding, fluorescence; activity change, negative = displacement: at 77.5 µM (top of the series)
How it was run: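 10 uM apoferritin + 50% sat. 1-AMA, PBS; cpd 10 min RT; Ex380/Em535 endpoint; normalized to free probe vs complex; 4-param Hill fit; propofol titration as pos. ctrl.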
On the % scale 0 is the no-effect control and ±100 the full control effect; potency means the concentration at half of the fitted maximal effect; tags describe the fitted curve by direction and shape.

| SMILES | activity change, negative = displacement | Potency |
| --- | --- | --- |
| CC1(C)CC(=O)C([N+](=O)[O-])=C(NCCCC(=O)O)C1 | inactive: -7.87% |  |
| CCOc1ncccc1C(=O)OCC(=O)c1ccc(Cl)s1 |  | inconclusive: 39.8 µM [inhibitor, single point] |
| Cc1ccc(NC(=S)N(Cc2ccc(Br)cc2)Cc2ccc(C(=O)O)cc2)cc1C | inactive: -13.6% |  |
| O=C(N/N=C/c1ccc(O)cc1)c1[nH]c2ccc(Br)cc2c1-c1ccccc1 | inactive: -1.13% |  |
| CN=C1SC(CC(=O)Nc2cc(Cl)ccc2Cl)C(=O)N1C (stereo not given) |  | inconclusive: 35.5 µM [inhibitor, partial curve] |
| CCN(CC)c1ccc(/C=N/NC(=O)c2cnccn2)cc1 |  | inconclusive: 22.4 µM [inhibitor, partial curve] |
| COc1cc(CNn2nnnc2N)cc(Br)c1OCc1c(Cl)cccc1Cl |  | inconclusive: 50.1 µM [inhibitor, single point] |
| CCOc1ccc(/C=N/Nc2ccccn2)cc1OC | inactive: 2.89% |  |
| Cc1cnc(C(=O)Nc2ccccc2-c2nnn(CC(=O)NC3CCCC3)n2)cn1 | inactive: 6.96% |  |
| COc1ccccc1OCC(=O)NNC(=O)Nc1ccc(Cl)cc1 | inactive: -11.1% |  |
| CC(C)(C)c1ccc(-c2nc3n(c(=O)c2C#N)CCS3)cc1 |  | inconclusive: 28.2 µM [inhibitor, partial curve] |
| CC(C)(C)C1CCC(OC(=O)C[N+]2(C)CCCCC2)CC1 (stereo not given) | inactive: -3.09% |  |
| CCn1cc(CNC(=O)CCc2nnc(CCC3CCCCC3)o2)cn1 |  | inconclusive: 25.1 µM [inhibitor, partial curve] |
| Cc1cccc(OCc2nnc(SCc3nc4cc(C(F)(F)F)ccc4c(=O)[nH]3)o2)c1 |  | inconclusive: 11.2 µM [inhibitor, partial curve] |
| CCOC(=O)c1[nH]c2ccc(OC)cc2c1NC(=O)OC | inactive: -1.42% |  |
| CC(C)CCNC(=O)c1csc2c1CCCCC2 |  | inconclusive: 22.4 µM [inhibitor, partial curve] |
| Oc1ccccc1C1CC(c2cccs2)=NC(c2ccc(Cl)cc2)N1 (stereo not given) |  | inconclusive: 25.1 µM [inhibitor, partial curve] |
| Cc1cc(SCC(=O)N/N=C/c2ccc(O)cc2O)nc2ccccc12 |  | inconclusive: 11.2 µM [inhibitor, partial curve] |
| Cc1ccc(-n2nc3c(N4CCC(C(=O)NCCc5ccccc5C)CC4)nnc(C)c3c2C)cc1 |  | inconclusive: 15.8 µM [inhibitor, partial curve] |
| Cc1ccc(O)c(C2=NOC(O)(C(F)(F)C(F)F)C2)c1 (stereo not given) |  | inconclusive: 31.6 µM [inhibitor, single point] |
| COc1ccc(OCc2cc(C(=O)NCCN3CCCC(O)C3)no2)c(Cl)c1 (stereo not given) |  | inconclusive: 28.2 µM [inhibitor, partial curve] |
| Cc1cc(OCC(=O)Nc2ccc(S(=O)(=O)N3CCN(C)CC3)cc2)ccc1Br |  | inconclusive: 14.1 µM [inhibitor, partial curve] |
| COc1cccc(C(=O)Nc2ccc(-n3nncc3C(C)(C)C)cc2)c1 |  | inconclusive: 31.6 µM [inhibitor, partial curve] |

| SMILES | activity change, negative = displacement | Potency |
| --- | --- | --- |
| COCc1cc(C)nc(SCc2ccc([N+](=O)[O-])cc2)c1C#N |  | inconclusive: 0.794 µM [inhibitor, full curve, poor fit] |
| CN(C)c1cc2c(cc1NC(=O)c1ccc(F)cc1)n(C)c(=O)n2C | inactive: -2.18% |  |
| Cc1cccc(NC(=S)NNC(=O)c2csc3c2CCCC3)c1 |  | inconclusive: 10 µM [inhibitor, partial curve] |
| CCOc1ccccc1NC(=O)C(=O)CC(=O)c1cccc(OC)c1 | inactive: -7.41% |  |
| CCc1ccc(-c2cc(C)no2)cc1S(=O)(=O)Nc1ccc(C)cn1 |  | inactive |
| Cc1cc(C)c(C(=O)NC2CCCc3c2cnn3-c2cccc(C)c2C)o1 (stereo not given) |  | inconclusive: 39.8 µM [inhibitor, single point] |
| C/C(CCc1ccco1)=N\NC(=O)CNc1cccc2ccccc12 |  | inconclusive: 31.6 µM [inhibitor, partial curve] |
| CSc1ccc(CCNC(=O)CCc2nnc3ccc(N4CCCCC4)nn23)cc1 |  | inconclusive: 25.1 µM [inhibitor, partial curve] |
| OC(CNCCc1ccc(C(F)(F)F)cc1)COc1ccc2ccccc2c1 (stereo not given) |  | inconclusive: 25.1 µM [inhibitor, partial curve] |
| Cc1nc(C)c(-c2csc(NCCc3ccccc3)n2)s1 |  | inconclusive: 28.2 µM [inhibitor, partial curve] |
| CCOC(=O)c1cnc2ccc(C(=O)OC)cc2c1Nc1ccc(N2CCOCC2)cc1 |  | inconclusive: 20 µM [inhibitor, partial curve] |
| Cc1c(N2C(=O)/C(=C/c3ccccc3)SC2=S)c(=O)n(-c2ccccc2)n1C |  | inconclusive: 12.6 µM [inhibitor, partial curve] |
| COc1ccc(Cl)cc1NC(=O)c1ncn(-c2ccccc2)n1 |  | inconclusive: 6.31 µM [inhibitor, partial curve] |
| CC(=O)c1ccc(NC(=O)CSc2nnc(NC(=O)Nc3ccccc3)s2)cc1 |  | inconclusive: 31.6 µM [inhibitor, partial curve] |
| O=C(O)c1ccc(COc2ccccc2Cl)cc1 | inactive: -9.29% |  |
| O=Nc1c(O)n(Cc2cccc(Cl)c2)c2ccccc12 |  | inconclusive: 22.4 µM [inhibitor, partial curve] |
| CC(=O)c1cccc(NC(=O)CN2C(=O)c3cccnc3Sc3ccccc32)c1 |  | inconclusive: 8.91 µM [inhibitor, full curve, poor fit] |
| CC1=C(C(=O)OCc2ccccc2)C(c2cccs2)N2C(=O)CCSC2=N1 (stereo not given) |  | inconclusive: 10 µM [inhibitor, partial curve] |
| CCC1NC(=S)NC(C)=C1C(=O)c1ccccc1 (stereo not given) | inactive: -12.8% |  |
| CC1CCC(C(C)C)C(OC(=O)Cn2c(-c3ccc(Cl)cc3)[n+](C)c3ccccc32)C1 (stereo not given) | inactive: 1.64% |  |
| CCc1cc(-c2n[nH]c(=S)n2Cc2ccccc2)cs1 |  | inconclusive: 31.6 µM [inhibitor, partial curve] |
| C#C[C@]1(OC(C)=O)CC[C@H]2[C@@H]3CCC4=CC(=O)CC[C@@H]4[C@H]3CC[C@@]21C |  | inconclusive: 35.5 µM [inhibitor, single point] |
